Experimental data taken from the supplement of paper PMC12217912.
Some of the results follow. The full chains were built here from the parent and the listed change. Inactive controls read about 0.05.

B1: TEV protease; numbered along this chain (parent)
chain: MGESLFKGPRDYNPISSSICHLTNESDGHTTSLYGIGFGPFIITNKHLFRRNNGTLVVQSLHGVFKVKDTTTLQQHLVDGRDMIIIRMPKDFPPFPQKLKFREPQREERICLVTTNFQTKSMSSMVSDTSCTFPSGDGIFWKHWIQTKDGQCGSPLVSTRDGFIVGIHSASNFTNTNNYFTSVPKNFMELLTNQEAQQWVSGWRLNADSVLWGGHKVFMVKPEEPFQPVKEATQL

Variants of: B1
Experiment: raw area under fraction-flipped curve 0-4 h after induction (AUC4h, not background-subtracted), DNA-recorder readout of cleavage of the substrate (dimensionless); higher = more cleavage of the substrate by the protease variant
Conditions: temperature: 34 °C; time window: 0-4 h after rhamnose induction
Protocol: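 In vivo DNA recorder in E. coli TOP10(DE3) ΔrhaA at 34 °C. Each TEVp single-site mutant (parent TEVp 0) is paired with a single-site variant of the 7-mer TEVs (canonical ENLYFQ|S). The substrate sits between flexible linkers in a Bxb1-sfGFP-TEVs-SsrA fusion, so cleavage stabilises Bxb1 and speeds flipping of a recombination array, read by NGS. The value is the raw area under the fraction-flipped curve over 0-4 h after rhamnose induction (AUC4h), with ≥20 reads per time point. It is not background-subtracted; inactive controls average about 0.047.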
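Also: Bxb1 expression induced with 0.2% (w/v) L-rhamnose at OD600 near 0.5, cultures sampled hourly, flipped fraction per protease–substrate barcode pair counted by paired-end Illumina sequencing.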

Variant | area with substrate CNLYFQS | area with substrate DNLYFQS | area with substrate FNLYFQS | area with substrate GNLYFQS | area with substrate HNLYFQS | area with substrate KNLYFQS | area with substrate LNLYFQS | area with substrate MNLYFQS | area with substrate NNLYFQS | area with substrate VNLYFQS | area with substrate WNLYFQS | area with substrate INLYFQS | area with substrate PNLYFQS | area with substrate QNLYFQS | area with substrate SNLYFQS | area with substrate TNLYFQS | area with substrate YNLYFQS | area with substrate RNLYFQS
MGESLFKGPRDYNPISSSICHLTNESDGHTTSLYGIGFGPFIITNKHLFRRNNGTLVVQSLHGVFKVKDTTTWQQHLVDGRDMIIIRMPKDFPPFPQKLKFREPQREERICLVTTNFQTKSMSSMVSDTSCTFPSGDGIFWKHWIQTKDGQCGSPLVSTRDGFIVGIHSASNFTNTNNYFTSVPKNFMELLTNQEAQQWVSGWRLNADSVLWGGHKVFMVKPEEPFQPVKEATQL [L73W] | 0.0494 | 0.0494 | 0.0475 | 0.0582 | 0.0548 | 0.0697 | 0.0492 | 0.0679 | 0.0673 | 0.0873 | 0.0497 |  |  |  |  |  |  | 
MGESLFKGPRDYNPISSSICHLTNESDGHTTSLYGIGFGPFIITNKHLFRRNNGTLVVQSLHGVFKCKDTTTLQQHLVDGRDMIIIRMPKDFPPFPQKLKFREPQREERICLVTTNFQTKSMSSMVSDTSCTFPSGDGIFWKHWIQTKDGQCGSPLVSTRDGFIVGIHSASNFTNTNNYFTSVPKNFMELLTNQEAQQWVSGWRLNADSVLWGGHKVFMVKPEEPFQPVKEATQL [V67C] | 0.0674 | 0.102 | 0.0411 | 0.0566 | 0.0622 | 0.0699 | 0.0643 | 0.0642 |  |  | 0.0596 | 0.0671 | 0.0725 | 0.0622 | 0.0548 | 0.0759 |  | 
MGESLFKGPRDYNPISSSICHLTNESDGHTTSLYGIGFGPFIITNKHLFRRNNGTLVVQSLHGVFKVKDTPTLQQHLVDGRDMIIIRMPKDFPPFPQKLKFREPQREERICLVTTNFQTKSMSSMVSDTSCTFPSGDGIFWKHWIQTKDGQCGSPLVSTRDGFIVGIHSASNFTNTNNYFTSVPKNFMELLTNQEAQQWVSGWRLNADSVLWGGHKVFMVKPEEPFQPVKEATQL [T71P] | 0.0685 | 0.0586 | 0.0641 |  |  |  |  |  |  |  |  | 0.0669 | 0.0696 | 0.0691 | 0.0568 | 0.0564 | 0.0502 | 
MGESLFKGPRDYNPISSSICHLTNESDGHTTSLYGIGFGPFIITNKHLFRRNNGTLVVQSLHGVFKVKDTTTLQQHWVDGRDMIIIRMPKDFPPFPQKLKFREPQREERICLVTTNFQTKSMSSMVSDTSCTFPSGDGIFWKHWIQTKDGQCGSPLVSTRDGFIVGIHSASNFTNTNNYFTSVPKNFMELLTNQEAQQWVSGWRLNADSVLWGGHKVFMVKPEEPFQPVKEATQL [L77W] | 0.0642 | 0.0639 |  | 0.0596 |  | 0.0692 | 0.0535 |  |  |  | 0.0529 | 0.0564 |  |  | 0.0587 | 0.0636 |  | 
MGESLFKGPRDYNPISSSICHLTNESDGHTTSLYGIGFGPFIITNKHLFRRNNGTLVVQSLHGVFKVKDTTTLQQHEVDGRDMIIIRMPKDFPPFPQKLKFREPQREERICLVTTNFQTKSMSSMVSDTSCTFPSGDGIFWKHWIQTKDGQCGSPLVSTRDGFIVGIHSASNFTNTNNYFTSVPKNFMELLTNQEAQQWVSGWRLNADSVLWGGHKVFMVKPEEPFQPVKEATQL [L77E] | 0.054 | 0.0619 | 0.0508 | 0.0772 | 0.0839 | 0.025 | 0.0588 | 0.0468 |  | 0.0645 | 0.0501 |  |  |  | 0.0574 | 0.0541 | 0.061 | 
MGESLFKGPRDYNPISSSICHLTNESDGHTTSLYGIGFGPFIITNKHLFRRNNGTLVVQSLHGVFKVKDTTTLQQHGVDGRDMIIIRMPKDFPPFPQKLKFREPQREERICLVTTNFQTKSMSSMVSDTSCTFPSGDGIFWKHWIQTKDGQCGSPLVSTRDGFIVGIHSASNFTNTNNYFTSVPKNFMELLTNQEAQQWVSGWRLNADSVLWGGHKVFMVKPEEPFQPVKEATQL [L77G] | 0.0836 | 0.0602 | 0.0708 | 0.0709 | 0.0644 | 0.0549 | 0.0555 |  | 0.0574 | 0.056 | 0.0655 | 0.0519 |  |  | 0.0674 | 0.0702 |  | 
MGESLFKGPRDYNPISSSICHLTNESDGHTTSLYGIGFGPFIITNKHLFRRNNGTLVVQSLHGVFKVKTTTTLQQHLVDGRDMIIIRMPKDFPPFPQKLKFREPQREERICLVTTNFQTKSMSSMVSDTSCTFPSGDGIFWKHWIQTKDGQCGSPLVSTRDGFIVGIHSASNFTNTNNYFTSVPKNFMELLTNQEAQQWVSGWRLNADSVLWGGHKVFMVKPEEPFQPVKEATQL [D69T] | 0.0506 | 0.0836 |  |  | 0.0594 | 0.064 |  | 0.0615 | 0.0681 | 0.0729 | 0.07 |  | 0.0701 |  | 0.0632 |  | 0.0577 | 
MGESLFKGPRDYNPISSSICHLTNESDGHTTSLYGIGFGPFIITNKHLFRRNNGTLVVQSLHGVFKVKNTTTLQQHLVDGRDMIIIRMPKDFPPFPQKLKFREPQREERICLVTTNFQTKSMSSMVSDTSCTFPSGDGIFWKHWIQTKDGQCGSPLVSTRDGFIVGIHSASNFTNTNNYFTSVPKNFMELLTNQEAQQWVSGWRLNADSVLWGGHKVFMVKPEEPFQPVKEATQL [D69N] | 0.074 | 0.0829 | 0.061 | 0.0647 | 0.0574 | 0.066 |  |  |  |  | 0.0608 | 0.063 | 0.0697 |  |  | 0.0451 | 0.0675 | 
MGESLFKGPRDYNPISSSICHLTNESDGHTTSLYGIGFGPFIITNKHLFRRNNGTLVVQSLHGVFKVKDTTTLCQHLVDGRDMIIIRMPKDFPPFPQKLKFREPQREERICLVTTNFQTKSMSSMVSDTSCTFPSGDGIFWKHWIQTKDGQCGSPLVSTRDGFIVGIHSASNFTNTNNYFTSVPKNFMELLTNQEAQQWVSGWRLNADSVLWGGHKVFMVKPEEPFQPVKEATQL [Q74C] | 0.0591 | 0.078 | 0.0541 |  | 0.0591 | 0.0794 | 0.0629 |  | 0.0671 |  | 0.0556 |  |  |  |  | 0.0555 | 0.0682 | 
MGESLFKGPRDYNPISSSICHLTNESDGHTTSLYGIGFGPFIITNKHLFRRNNGTLVVQSLHGVFKVKDTTTLRQHLVDGRDMIIIRMPKDFPPFPQKLKFREPQREERICLVTTNFQTKSMSSMVSDTSCTFPSGDGIFWKHWIQTKDGQCGSPLVSTRDGFIVGIHSASNFTNTNNYFTSVPKNFMELLTNQEAQQWVSGWRLNADSVLWGGHKVFMVKPEEPFQPVKEATQL [Q74R] | 0.0734 | 0.0591 |  | 0.0657 | 0.0628 |  | 0.0582 | 0.0668 |  | 0.0743 | 0.0647 |  | 0.0694 |  |  | 0.0555 |  | 0.0643
